Experimental data from the antibiotic and cytotoxicity screens of Wong et al. (2023).
The other results are listed elsewhere or left out.

Assays:
[1] = test system: HSkMC (human skeletal muscle cells); test: cytotoxicity call (relative viability < 0.9); conditions: 10 µM
[2] = test system: HepG2; test: cytotoxicity call (relative viability < 0.9); conditions: 10 µM
[3] = test system: S. aureus RN4220; test: growth inhibition call (relative growth <= 0.2); conditions: 50 µM

NCc1c[nH]c(=S)n1[C@H]1CCc2c(F)cc(F)cc2C1
inactive: cytotoxicity call [1] | cytotoxicity call [2] | growth inhibition call [3]

C[C@@H]1CN([C@H](C)CO)C(=O)c2cc(NC(=O)Cc3ccccc3)ccc2O[C@H]1CN(C)S(=O)(=O)c1ccccc1
inactive: cytotoxicity call [1] | cytotoxicity call [2] | growth inhibition call [3]

O=C(Nc1c(Cl)cncc1Cl)c1ccc(OC(F)F)c(OCC2CC2)c1
inactive: cytotoxicity call [1] | cytotoxicity call [2] | growth inhibition call [3]

C[C@@H]1CCn2cc(nn2)COC[C@H](Cc2ccccc2)NC(=O)[C@H](C)CCn2cc(nn2)COC[C@H](Cc2ccccc2)NC1=O
inactive: cytotoxicity call [1] | cytotoxicity call [2] | growth inhibition call [3]

O=C(Cn1cc(COc2ccc(Cl)c(Cl)c2)nn1)NS(=O)(=O)c1cccc(OC(F)F)c1
inactive: cytotoxicity call [1] | cytotoxicity call [2] | growth inhibition call [3]

OCc1ccccc1
inactive: cytotoxicity call [1] | cytotoxicity call [2] | growth inhibition call [3]

COc1ccccc1C#Cc1cnc2c(c1)C(=O)N([C@H](C)CO)C[C@@H](C)[C@@H](CN(C)C(=O)CN(C)C)O2
inactive: cytotoxicity call [1] | cytotoxicity call [2] | growth inhibition call [3]

C[C@H]1CN([C@@H](C)CO)C(=O)CCCn2cc(nn2)CO[C@H]1CN(C)C(=O)Nc1ccnc(N2CCOCC2)c1
inactive: cytotoxicity call [1] | cytotoxicity call [2] | growth inhibition call [3]

O=C(C[C@H]1CC[C@@H]2[C@H](COC[C@H](O)CN2S(=O)(=O)c2ccccc2)O1)N[C@H]1CCN(Cc2ccccc2)C1
inactive: cytotoxicity call [1] | cytotoxicity call [2] | growth inhibition call [3]

C[C@H]1CN([C@@H](C)CO)C(=O)CCCn2cc(nn2)CO[C@H]1CN(C)S(=O)(=O)c1ccccc1C#N
inactive: cytotoxicity call [1] | cytotoxicity call [2] | growth inhibition call [3]

C[C@@H]1CN([C@@H](C)CO)C(=O)c2cc(NS(=O)(=O)c3ccc(Cl)cc3)ccc2O[C@H]1CN(C)Cc1ccc(C(=O)Nc2ccccc2N)cc1
inactive: cytotoxicity call [1] | cytotoxicity call [2] | growth inhibition call [3]
